Assays:
in vivo [1] = conditions: female, CD1, mouse, iv, 5 mg/kg
[2] = PAMPA
in vivo [3] = conditions: female, CD1, mouse, plasma, po, 30 mg/kg
in vivo [4] = conditions: female, CD1, mouse, iv, 5 mg/kg; remark: listed apart in the source
in vitro = conditions: human, Caco-2
in vivo [5] = conditions: female, CD1, mouse, iv, 5 mg/kg; remark: listed apart in the source
in vivo [6] = conditions: female, CD1, mouse, po, 30 mg/kg
in vivo [7] = conditions: female, CD1, mouse, iv, 5 mg/kg; remark: listed apart in the source

SMILES: CC(C)(N)C(=O)N1CCn2c(nc(-c3cccc(F)c3)c2Nc2ccc(F)cc2)C1
- clearance (in vivo [1]): 134 mL/min/kg
- permeability [2]: 92%
- AUC(0-inf) (in vivo [3]): 3.72 µM·h
- half-life (in vivo [4]): 2.3 h
- Papp A→B (in vitro): 1.07 ×10⁻⁶ cm/s
- AUC(0-inf) (in vivo [5]): 1.32 µM·h
- half-life (in vivo [6]): 2.3 h

SMILES: Cc1ccc(Nc2c(-c3ccc(F)cc3)nc3n2CCN(C(=O)CN)C3)cc1
- clearance (in vivo [1]): 222 mL/min/kg
- permeability [2]: 52%
- AUC(0-inf) (in vivo [3]): 2.34 µM·h
- half-life (in vivo [4]): 3.6 h
- Papp A→B (in vitro): 1.63 ×10⁻⁶ cm/s
- AUC(0-inf) (in vivo [5]): 0.976 µM·h
- half-life (in vivo [6]): 4.8 h

SMILES: Cc1ccc(Nc2c(-c3ccc(F)cc3)nc3n2CCN(C(=O)C(C)(C)N)C3)cc1
- clearance (in vivo [1]): 42 mL/min/kg
- permeability [2]: 96%
- AUC(0-inf) (in vivo [3]): 18 µM·h
- half-life (in vivo [4]): 13.7 h
- Vd (in vivo [7]): 41.1 L/kg
- Papp A→B (in vitro): 0.96 ×10⁻⁶ cm/s
- AUC(0-inf) (in vivo [5]): 5.25 µM·h
- half-life (in vivo [6]): 15.5 h

SMILES: NCC(=O)N1CCn2c(nc(-c3ccc(F)cc3)c2Nc2ccc(Cl)c(F)c2)C1
- clearance (in vivo [1]): 10.3 mL/min/kg
- permeability [2]: impermeable
- AUC(0-inf) (in vivo [3]): 6.17 µM·h
- half-life (in vivo [4]): 3.8 h
- Vd (in vivo [7]): 1.5 L/kg
- Papp A→B (in vitro): 0.75 ×10⁻⁶ cm/s
- AUC(0-inf) (in vivo [5]): 20.6 µM·h
- half-life (in vivo [6]): 3.6 h

From ChEMBL document CHEMBL1800027, “Imidazolopiperazines: hit to lead optimization of new antimalarial agents” (J Med Chem, 2011)
